Test results published in PubChem BioAssay AID504466 (National Center for Advancing Translational Sciences (NCATS), 2011).
Hit rate of the full screen: of about 330,000 compounds, about 4,200 (1.3%) were called active. The inconclusive results got no clear call from the source; some entries with a clear call stand among them for comparison. Calls come from the whole dose curve; as a rule, active = well fitted activation curve with a large enough effect; inconclusive = small, poorly fitted or top-dose-only effect; inactive = no such curve, though single readings can be large or run the other way. Potencies beside an inconclusive call are fits to weak or partial responses and may not hold up.
Potency is the fitted concentration of half-maximal effect; tags give direction and shape of the fitted curve.

Assay: qHTS screen for small molecules that induce genotoxicity in human embryonic kidney (HEK293T) cells expressing luciferase-tagged ELG1; note: nearly all actives have a fitted effect of over 60% in size
Conditions: HEK293T ELG1-luciferase reporter, luminescence, 16 h; series mostly up to 46 µM
Method in brief: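 ELG1-luciferase HEK293T cells, 2,000/well; compound pinned in; 16 hr, 37 °C, 5% CO2; ONE-Glo, 30 min RT; luminescence on CCD imager.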
For `O=C(CCn1c(=O)oc2ccccc21)Nc1ccc2c(c1)OCCO2`, the Potency was inconclusive: 18.3 µM [activator, partial curve, poor fit]. With `CC1CCN(c2ccc(-c3cccc(NC(=O)c4ccco4)c3)nn2)CC1` the Potency was active: 0.517 µM. In the case of `c1ccc(C2=NNC(=NCc3ccc4c(c3)OCO4)SC2)cc1`, the Potency is reported as “inactive”. With `O=C(Nc1ccc2c(c1)OCO2)c1cc2nc(C3CC3)cc(C(F)(F)F)n2n1` the Potency was “inactive”. In the case of `CN(C)C(=O)N1CCN(c2nc(-c3ccccc3)cs2)CC1`, the Potency is reported as inconclusive: 3.16 µM [activator, partial curve, poor fit]. For `Fc1ccccc1N=C1NN=C(c2ccccc2)CS1`, the Potency was inconclusive: 2.91 µM [activator, partial curve, poor fit]. For `CCNc1ccccc(-c2ccc3ccccc3n2)c1=O`, the Potency was inconclusive: 13 µM [activator, partial curve]. In the case of `COCCNC(=O)NC(=O)CN1C(=O)NC(Cc2c[nH]c3ccccc23)C1=O` (stereo not given), the Potency is reported as “inactive”. For `COc1ccc(C(=O)Nc2nc3ccccc3[nH]2)cc1OC`, the Potency was inconclusive: 8.2 µM [activator, partial curve, poor fit]. For `COc1ccc(OCc2cc(C(=O)N(C)CC3CCCCO3)no2)c(Cl)c1` (stereo not given), the Potency was inconclusive: 20.6 µM [activator, partial curve, poor fit]. With `CCCCn1c(N)c(N(CCC(C)C)C(=O)C2CCCO2)c(=O)[nH]c1=O` (stereo not given) the Potency was “inactive”. In the case of `CN(Cc1ccccc1)C(=O)c1ccc2c(c1)OCCO2`, the Potency is reported as “inactive”. For `CCOc1ccccc1NC(=O)CSc1nc(N)c(C#N)cc1C#N`, the Potency was “inactive”. With `COc1ccc(/C(C)=N/Nc2cccc(C(=O)O)c2)cc1OC` the Potency was active: 5.17 µM. In the case of `COc1ccc(C(=O)Nc2ccccc2C(=O)N/N=C/c2ccccc2OC)cc1`, the Potency is reported as inconclusive: 5.17 µM [activator, partial curve, poor fit]. For `O=C(Cc1ccccn1)c1ccccc1`, the Potency was “inactive”. In the case of `CN(C)S(=O)(=O)c1ccc(Cl)c(C(=O)Nc2nc3ccccc3[nH]2)c1`, the Potency is reported as “inactive”. With `CN(C)c1ccc(Nc2nc(-c3cccnc3)cs2)cc1` the Potency was active: 1.46 µM. For `O=C(Nc1ccc2c(c1)OCCO2)c1cccc(Br)c1`, the Potency was active: 2.59 µM. In the case of `COc1ccc(-n2ncc3c(NCc4ccc5c(c4)OCO5)ncnc32)cc1`, the Potency is reported as inconclusive: 11.2 µM [activator, partial curve, poor fit]. In the case of `Nc1ccc(-c2nc3ncccc3o2)cc1`, the Potency is reported as inconclusive: 14.6 µM [activator, partial curve]. In the case of `CC1CCCN(C(=S)NCc2ccccc2)C1` (stereo not given), the Potency is reported as “inactive”. With `N#C/C(=C(/O)COC(=O)CSc1ccc(Cl)cc1)c1nc2ccccc2[nH]1` the Potency was inconclusive: 25.9 µM [activator, partial curve, poor fit]. For `CCn1cc(Br)c(C(=O)Nc2ccc(Cl)cc2Cl)n1`, the Potency was inconclusive: 29.1 µM [activator, single point]. In the case of `COc1ccc(-c2cc(C(=O)NC3CCCC3)no2)cc1`, the Potency is reported as active: 3.66 µM. With `CCOc1ccc(NC(=O)CSc2nccn2Cc2ccco2)cc1` the Potency was inconclusive: 16.4 µM [activator, partial curve, poor fit]. For `O/C(=C\c1ccc2ccccc2n1)c1ccncc1`, the Potency was inconclusive: 3.26 µM [activator, full curve]. With `Cc1nn(-c2ccccc2)c(C)c1C(=O)OCC(=O)Nc1ccccc1F` the Potency was inconclusive: 2.91 µM [activator, full curve, poor fit]. With `O=C(Nc1ccc(NC(=O)C2CCCCC2)cn1)c1ccco1` the Potency was active: 0.651 µM. With `COc1cc(/C=N/Nc2cccc(C)c2)ccc1OC(=O)c1cccs1` the Potency was inconclusive: 29.1 µM [activator, single point]. For `COc1cc(O)sc1C=Nc1ccc(Cl)cc1Cl`, the Potency was inconclusive: 18.3 µM [activator, partial curve, poor fit]. For `C=C1CCN([C@@H](C)C(=O)NCCCCCC)S(=O)(=O)c2ccccc21`, the Potency was “inactive”. With `CN(C)S(=O)(=O)c1cccc(NC(=O)c2cc(-c3cccs3)nn2-c2cccc(Cl)c2)c1` the Potency was “inactive”. For `N#Cc1nc(Cc2ccccc2)oc1N1CCCC1`, the Potency was inconclusive: 20.6 µM [activator, partial curve, poor fit]. With `Cc1cc(OCc2cc(C(=O)N(C)Cc3ccccn3)no2)cc(C)c1Cl` the Potency was inconclusive: 8.2 µM [activator, partial curve]. For `CCOC(=O)c1ccc(S(=O)(=O)N2CCN(c3ccccn3)CC2)cc1`, the Potency was “inactive”. In the case of `CCOC(=O)N1CCN(C(=O)CSCC(=O)Nc2nc(-c3ccc(-c4ccccc4)cc3)cs2)CC1`, the Potency is reported as active: 2.59 µM. With `OC(COc1ccc(Cl)cc1)CSc1ccccn1` (stereo not given) the Potency was inconclusive: 23.1 µM [activator, partial curve, poor fit]. For `COc1ccc(CNC(=O)C(=O)NCC2OCCN2S(=O)(=O)c2ccc(F)cc2)cc1` (stereo not given), the Potency was inconclusive: 29.1 µM [activator, single point]. In the case of `CCC(CO)Nc1ncnc2c1cnn2-c1ccc(Cl)cc1` (stereo not given), the Potency is reported as inconclusive: 2.59 µM [activator, partial curve]. With `CCOc1ccccc1C(=O)N(Cc1ccc(C)o1)C1CCS(=O)(=O)C1` (stereo not given) the Potency was “inactive”. In the case of `COc1ccc(NC2CCCCC2NS(=O)(=O)c2ccc(C)cc2)cc1` (stereo not given), the Potency is reported as “inactive”. For `COCCCNc1nc(N)c([N+](=O)[O-])c(Nc2cc(OC)ccc2OC)n1`, the Potency was inconclusive: 29.1 µM [activator, single point]. With `O=C(Nc1ccc(-c2nnco2)cc1)c1ccccc1` the Potency was inconclusive: 18.4 µM [activator, single point]. For `O=C(Nc1nc2ccc([N+](=O)[O-])cc2s1)C1CCCO1` (stereo not given), the Potency was inconclusive: 20.6 µM [activator, partial curve, poor fit]. With `COC(=O)c1ccc(C(=O)OC)c(NC(=O)C2CCCO2)c1` (stereo not given) the Potency was “inactive”. With `O=C(NCc1ccco1)c1cc2c(s1)CCCCC2` the Potency was active: 11.6 µM. With `COc1cc(C(=S)N2CCOCC2)cc(OC)c1OS(=O)(=O)c1ccc(C)cc1` the Potency was inconclusive: 32.6 µM [activator, partial curve, poor fit]. In the case of `CN(C)c1ccc(C(=O)/C=C/c2ccccc2)cc1`, the Potency is reported as inconclusive: 9.2 µM [activator, partial curve]. With `COc1ccccc1N1CCN(c2ncnc3c2oc2ccccc23)CC1` the Potency was inconclusive: 11.6 µM [activator, single point]. With `COCCn1c(C)cc(C(=O)CSc2nnnn2C2CCCC2)c1C` the Potency was inconclusive: 0.291 µM [activator, partial curve, poor fit]. For `COc1ccc(COCC(O)CN2CC(C)OC(C)C2)cc1OC` (stereo not given), the Potency was “inactive”. With `CC(=O)Cc1nsc(Nc2ccc3c(c2)OCCO3)n1` the Potency was inconclusive: 9.2 µM [activator, partial curve]. In the case of `CC(=O)c1cccc(NC(=O)Cc2cccs2)c1`, the Potency is reported as “inactive”. With `Cc1ccn2cc(CNS(=O)(=O)c3ccc4ccccc4c3)nc2c1` the Potency was “inactive”. With `COc1cc(/C=N/N=C2/NC(=O)C(c3ccccc3)S2)ccc1O` (stereo not given) the Potency was inconclusive: 18.4 µM [activator, single point]. For `O=[N+]([O-])c1ccc(S(=O)(=O)Nc2cccc(-c3ccc(N4CCCC4)nn3)c2)cc1`, the Potency was inconclusive: 10.3 µM [activator, partial curve, poor fit]. In the case of `CCOc1ccc(/C=C2/SC(=S)N(CCC(=O)Nc3ccc(C(=O)O)cc3)C2=O)cc1`, the Potency is reported as inconclusive: 16.4 µM [activator, partial curve]. For `COc1ccccc1NC(=O)c1c[nH]c2ccccc12`, the Potency was inconclusive: 20.6 µM [activator, partial curve, poor fit]. In the case of `O=C1NCCCN1Cc1ccc(Cl)cc1`, the Potency is reported as “inactive”. For `CCC1c2ccc(C)n2CCN1C(=O)Nc1ccc(F)cc1` (stereo not given), the Potency was inconclusive: 14.6 µM [activator, partial curve, poor fit]. In the case of `COc1ccc(CCNC(=O)CCCOc2cc(=O)n(C)c3ccccc23)cc1OC`, the Potency is reported as inconclusive: 29.1 µM [activator, single point]. For `Cc1ccc(C(=O)OCC(=O)c2ccc[nH]2)s1`, the Potency was inconclusive: 32.6 µM [activator, partial curve, poor fit]. In the case of `Cc1ccc(SCCN2CCN(Cc3ccccc3)CC2)cc1`, the Potency is reported as “inactive”. For `NC(=O)c1ccccc1OCc1nc2ccccc2s1`, the Potency was inconclusive: 0.58 µM [activator, single point]. In the case of `Cc1ccc(C2=N/C(=C\N3CCCCC3)C(=O)O2)cc1`, the Potency is reported as active: 4.11 µM. With `COc1ccccc1NC(=S)N(Cc1ccccn1)Cc1ccccc1Cl` the Potency was inconclusive: 0.73 µM [activator, full curve, poor fit]. For `COc1cccc(C(=O)Nc2nnc(SCC(=O)NC3CC3)s2)c1`, the Potency was inconclusive: 14.6 µM [activator, partial curve, poor fit]. In the case of `CC(/C=N/Nc1nc2ccccc2[nH]1)=C\c1ccccc1`, the Potency is reported as active: 0.82 µM. With `O=C(Nc1cccc(-c2ccc(N3CCOCC3)nn2)c1)c1ccccc1` the Potency was inconclusive: 3.66 µM [activator, single point]. For `O=C(OCC(=O)N1CCCC1=O)c1nc(Cl)c(Cl)c(Cl)c1Cl`, the Potency was “inactive”. With `COc1ccc(/C=N/NC(=O)CCSc2nc3ccccc3s2)cc1OC` the Potency was “inactive”. With `Cc1ccc(-n2ncc(N(C)C)c(Cl)c2=O)cc1` the Potency was inconclusive: 1.64 µM [activator, full curve]. For `CCCCn1c(N)c(N(CCC(C)C)C(=O)c2sc3nc4n(c(=O)c3c2C)CCC4)c(=O)[nH]c1=O`, the Potency was “inactive”. In the case of `Cc1cccc(C(=O)Nc2c(C(=O)N(C)C)cnn2-c2ccccc2)c1`, the Potency is reported as “inactive”.
